Measured values reported in PubChem BioAssay AID493208 (National Center for Advancing Translational Sciences (NCATS), 2011).
About 340 (0.77%) of roughly 44,000 compounds were called active. About 5% were inconclusive and are not listed. The call rests on the fitted dose curve; in most records, active means well fitted inhibition curve with a large enough effect; inconclusive means small, poorly fitted or top-dose-only effect; inactive means flat fitted curve, though single readings scatter. Some of the results follow.

Assay: Acumen qHTS Assay for Inhibitors of the mTORC1 Signaling Pathway in MEF (Tsc2-/-, p53-/-) Cells: Sytravon; further: nearly all actives have a fitted effect of over 50% in size;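 on activity change, negative = inhibition: plate controls were DMSO for no effect and rapamycin for full effect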
Details: phospho-rpS6 immunofluorescence/PI, 24 h; series mostly up to 38.3 µM; activity change, negative = inhibition: at the top concentration
Procedure, shortened: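 Compounds act on Tsc2-/-, p53-/- fibroblasts carrying an empty vector for 24 h before fixation and dual staining for phospho-S6 and DNA (propidium iodide). Values are percentages of cells above a rapamycin-defined pS6/PI threshold.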
Potency means the concentration at half of the fitted maximal effect.

Row | SMILES | activity change, negative = inhibition | Potency
1 | COc1ccc2c(c1)c1c(c(=O)n(-c3cc(Cl)ccc3C)c(=O)n1CC(=O)N1CCCC1)n2C | inactive: 0.318% | 
2 | COc1ccc(-c2nnn3c2nc(NCCc2ccc(OC)c(OC)c2)c2ccccc23)cc1 | inactive: -18.4% | 
3 | Cc1nn2c(=O)cc(COc3ccc(/C=C(\C#N)C(=O)Nc4ccccc4C)cc3)nc2s1 | inactive: -2.46% | 
4 | COc1ccc(OC)c(Nc2nc3ccccc3nc2-n2nc(C)cc2C)c1 | inactive: -0.796% | 
5 | COc1ccc(Cn2ccc3nc(C)c(C(=O)N4CCN(c5ccc(F)cc5)CC4)cc3c2=O)cc1 | inactive: -1.5% | 
6 | Cc1ccccc1NC(=O)c1c(NC(=O)c2ccccc2F)sc2c1CCC(C)C2 (stereo unspecified) | inactive: -4.97% | 
7 | COc1ccccc1NC(=O)c1ncn(-c2ccccc2)n1 | inactive: -0.175% | 
8 | CCOC(=O)c1cccc(NC(=O)CCc2c(C)nn(-c3ccc(N4CCCCC4)nn3)c2C)c1 | inactive: -8.47% | 
9 | Cc1ccc(Sc2c(C)nn(C(C)(C)C)c2OC(=O)CC(C)C)cc1 | inactive: -1.45% | 
10 | Cc1cccc2c(=O)cc(CSc3ccccc3NC(=O)c3cccc(Cl)c3)[nH]c12 | inactive: 8.18% | 
11 | CCOc1ccc(-c2cc3c(=O)n(Cc4nc(-c5ccc(OCC)c(OC)c5)oc4C)ccn3n2)cc1Cl | inactive: 2.5% | 
12 | CCCCn1cc2c(c1-c1ccc(Br)cc1)c(=O)n(C)c(=O)n2C | inactive: 1.21% | 
13 | Cc1ccc2nc(CSc3nnc(NC(=O)C(C)C)s3)cc(=O)n2c1 | inactive: 2.25% | 
14 | Cc1cccc(OCC(=O)Nc2c(C(=O)Nc3ccc(F)cc3)oc3ccccc23)c1 | inactive: -11.6% | 
15 | Cc1cccc(N2C(=O)CSC23C(=O)N(C)c2ccccc23)c1 (stereo unspecified) | inactive: 1.45% | 
16 | COc1ccc(NCc2cc3ccc(OC)cc3n(CC(=O)Nc3ccc(C)c(C)c3)c2=O)cc1 | inactive: -6.62% | 
17 | O=c1c2sc3ccccc3c2n(Cc2cccc(Cl)c2)c(=O)n1Cc1ccccc1 | inactive: 0.328% | 
18 | COc1cc(NC(=O)NCCc2c(C)nn(C)c2C)cc(OC)c1OC | inactive: 0% | 
19 | CCCN1CCN(c2nnc(-n3cccc3C(=O)Nc3ccccc3C(F)(F)F)s2)CC1 | inactive: -5.76% | 
20 | CCOc1ccc(OCC)c(NC(=O)c2cnn(-c3ccc(F)cc3)c2-n2cccc2)c1 | inactive: -10.5% | 
21 | CCc1ccc(-n2nc(C)c3c(C)cc(=O)n(CC(=O)Nc4cc(Cl)ccc4OC)c32)cc1 | inactive: -14.1% | 
22 | CC(=O)Nc1ccc(S(=O)(=O)NCCc2csc3nc(-c4ccc(Cl)cc4)nn23)cc1 | inactive: -7.19% | 
23 | COc1ccc(S(=O)(=O)Nc2cccc(-c3ccc(N4CCCCCC4)nn3)c2)cc1OC | inactive: 4.78% | 
24 | CC(C)(C)OC(=O)N1CCC(c2c(C(=O)N3CCN(c4cccc(Cl)c4)CC3)cnn2-c2cccc(Cl)c2)CC1 | inactive: 3.87% | 

Row | SMILES | activity change, negative = inhibition | Potency
25 | CCc1ccc(NC(=O)C2CCCN(S(=O)(=O)c3ccc4[nH]c(=O)ccc4c3)C2)cc1 (stereo unspecified) | inactive: -0.0942% | 
26 | CCC1CN(C(=O)NCc2ccc(F)cc2)c2cc(C)ccc2O1 (stereo unspecified) |  | active: 20.7 µM
27 | CCOC(=O)C1CCN(C(=O)Cn2nc(C)n3c(cc4c(OC)cccc43)c2=O)CC1 | inactive: -3.48% | 
28 | COc1cccc(C(c2sc3nc(-c4ccco4)nn3c2O)N2CCC(C)CC2)c1 (stereo unspecified) | inactive: -0.107% | 
29 | O=C(CSc1ccnc(=O)[nH]1)NCc1ccc(F)cc1 | inactive: -9.67% | 
30 | Cc1cccc(N(C)S(=O)(=O)c2nnc(NC(=O)C(C)Oc3ccccc3)s2)c1 (stereo unspecified) | inactive: 8.33% | 
31 | CN1C(=O)c2ccccc2Sc2ccc(NC(=O)Cc3ccc(Cl)cc3)cc21 | inactive: 0.888% | 
32 | COc1ccc(OC)c(CCNC(=O)c2ccc3c(c2)N(Cc2ccccc2)CCS3)c1 | inactive: 1.6% | 
33 | COC(=O)c1sccc1S(=O)(=O)N1CCN(c2cccc(C)c2)C(C)C1 (stereo unspecified) | inactive: -11.2% | 
34 | O=C(NCc1ccccc1)C1CCN(c2ncnc3c2nc2n3CCCCC2)CC1 | inactive: -4.23% | 
35 | CCOC(=O)c1cccc(NC(=O)C2COc3ccc(OC)cc3C2)c1 (stereo unspecified) | inactive: 2.15% | 
36 | Cc1ccc(CCNC(=O)C2CC(=O)N(CCc3ccc(C)cc3)C2)cc1 (stereo unspecified) | inactive: 1.43% | 
37 | O=C(NCc1ccc(Cl)cc1)c1ccc2c(c1)nnn2C1CCCC1 | inactive: 5.15% | 
38 | CCCCc1ccc(NC(=O)Cn2cnc3c(oc4ccccc43)c2=O)cc1 | inactive: -17.7% | 
39 | Cc1ccc(-n2cc(-c3ccccc3)c3c(N4CCC(C)CC4)ncnc32)cc1Cl | inactive: 11.5% | 
40 | COc1ccc(C)cc1NC(=O)CSc1nc(=O)n(Cc2ccco2)c2c1CCC2 | inactive: 0.896% | 
41 | Cc1nc2nc(NCc3ccccc3Cl)[nH]n2c(=O)c1Cc1ccccc1 | inactive: 4.45% | 
42 | CCOC(=O)c1cnc2c(C)cc(C)cc2c1NCCN1CCOCC1 | inactive: 1.38% | 
43 | O=C(Nc1ccccc1OCc1cc(=O)n2ccccc2n1)Nc1ccccc1C(F)(F)F | inactive: -14% | 
44 | CCCSC1=NC2(CCN(C(=O)NC3CCCCC3)CC2)N=C1c1ccc(C)cc1 | inactive: -2.31% | 
45 | Cc1ccccc1NC(=O)CSc1nc2c(oc3ccccc32)c(=O)n1Cc1ccco1 | inactive: 1.35% | 
46 | Cc1ccc(C)c(OCc2nc3ccccc3n2C)c1 | inactive: -11.6% | 
47 | COc1ccccc1/C=C/c1nc(C#N)c(N(C)C)o1 | inactive: 2.27% | 
48 | Cc1c2cnn(CC(=O)Nc3cccc(C(F)(F)F)c3)c(=O)c2c(C)n1Cc1ccccc1Cl | inactive: -2.82% | 

Row | SMILES | activity change, negative = inhibition | Potency
49 | CCOC(=O)N1CCc2c(sc3c2c(=O)n(-c2ccc(CC)cc2)c(=O)n3CC(=O)c2ccc(F)cc2)C1 | inactive: -2.57% | 
50 | COc1cc(C(=O)Nc2ccc3nc(SCc4ccccc4)sc3c2)cc(OC)c1OC | inactive: -14.6% | 
51 | Cc1ccc(C(=O)NCC(c2cccs2)S(=O)(=O)c2cccs2)cc1 (stereo unspecified) | inactive: 0.398% | 
52 | CCC(Sc1nncn2c1cc1occc12)C(=O)Nc1ccc(C)c(Cl)c1 (stereo unspecified) | inactive: 0% | 
53 | CCN(C(=O)CSc1nc2ccccc2n1Cc1cc(C)ccc1C)c1ccccc1 | inactive: 0% | 
54 | Cc1c2cnn(CC(=O)NC(C)C)c(=O)c2c(C)n1Cc1ccccc1Cl | inactive: 1.8% | 
55 | COc1cccc(C2C(C(=O)Nc3ccc(C)cc3C)=C(C)Nc3c(C(=O)Nc4cccc(C)c4)cnn32)c1OC (stereo unspecified) | inactive: -2.87% | 
56 | COc1cccc(N2CCN(C3C(=O)c4ccccc4N3C(C)=O)CC2)c1 (stereo unspecified) | inactive: 1.36% | 
57 | CCOc1ccc(OCC)c(NC(=O)CN(C)S(=O)(=O)c2ccc3c(c2)CCCC(=O)N3)c1 | inactive: 6.82% | 
58 | O=C(Cn1nc(-c2ccc(Cl)cc2)ccc1=O)NCc1ccccc1Cl | inactive: 5.97% | 
59 | CCCNC(=O)C1CCC(Cn2c(=O)c3sccc3n(CC(=O)N3CCC(C)CC3)c2=O)CC1 (stereo unspecified) | inactive: 0.0967% | 
60 | Cc1cccc(OCC(=O)N(Cc2sccc2C)C2CCS(=O)(=O)C2)c1 (stereo unspecified) | inactive: -0.77% | 
61 | COc1ccc(N2CCN(C(=O)c3ccc(-c4nc(COc5ccccc5)c(C)o4)cc3)CC2)cc1 | inactive: -6.45% | 
62 | COc1ccc(N2CCN(C(=O)c3nc(SC)ncc3Cl)CC2)cc1 | inactive: -6.13% | 
63 | COc1ccc(C(C)C)cc1S(=O)(=O)NCCc1c(C)[nH]c2ccc(C)cc12 | inactive: -29.9% | 
64 | CC(C)(C)OC(=O)N1CCC(c2c(C(=O)N3CCc4ccccc4C3)cnn2-c2ccc(F)cc2)CC1 | inactive: 2.18% | 
65 | CC1=C(c2ccc(C)c(C)c2)S(=O)(=O)N=C1N1CCC(C(=O)NCc2ccc(C)o2)CC1 | inactive: -1.16% | 
66 | Cc1ccccc1OCCn1c(CCNC(=O)C(C)(C)C)nc2ccccc21 | inactive: -0.815% | 
67 | CC(NC(=O)CCCn1c(=O)c2cccn2c2cccnc21)c1ccccc1 (stereo unspecified) | inactive: -0.111% | 
68 | CCOc1ccc(-c2nc(C#N)c(NCCCOC)o2)cc1 | inactive: -28.2% | 
69 | CCc1ccc(CNC(=O)c2ccc(-c3nc(CS(=O)(=O)c4ccccc4)c(C)o3)cc2)cc1 | inactive: -0.754% | 
70 | Cc1coc2c(C)c3oc(=O)c(CCC(=O)NCCc4ccc(Cl)cc4)c(C)c3cc12 | inactive: -4.01% | 
71 | CCN(CCCNC(=O)c1cc2c(=O)n(CC)c3ccccc3c2s1)c1ccccc1 | inactive: -1.06% | 
72 | COc1ccc(OC)c(CNC(=O)Cc2ccc(NC(=O)N3CCCCc4ccccc43)cc2)c1 | inactive: -9.86% | 

Row | SMILES | activity change, negative = inhibition | Potency
73 | COCCCNC(=O)c1c(NC(=O)Cc2coc3cc(C)cc(C)c23)sc2c1CCCC2 | inactive: -13.8% | 
74 | CCc1ccc(CNC(=O)CSc2cc(=O)n(C)c3ccc(Cl)cc23)cc1 | inactive: 4.33% | 
75 | CC(NC(=O)CCSCc1ccccc1F)c1ccccc1 (stereo unspecified) | inactive: 14.3% | 
76 | COc1ccc(-c2cc(-c3ccccc3)nc(SCC(=O)CC(=O)OC(C)C)c2C#N)cc1 | inactive: -6.96% | 
77 | O=C(c1ccc2c(c1)N(Cc1ccccc1F)C(=O)c1ccccc1S2(=O)=O)N1CCCC1 | inactive: -9.74% | 
78 | Cc1cc(F)ccc1NCc1ccccc1-c1nnc(-c2ccccc2Cl)o1 | inactive: -9.47% | 
79 | O=C(NCC(c1cccnc1)N1CCc2ccccc21)c1cccc(C(F)(F)F)c1 (stereo unspecified) | inactive: -8.51% | 
80 | COc1ccc(C(=O)N(Cc2cc(OC)c(OC)c(OC)c2)CC2CCCO2)cc1 (stereo unspecified) | inactive: -0.847% | 
81 | CCCNC(=O)CSc1nc2nc(C)c(Cc3ccccc3Cl)c(C)n2n1 | inactive: 5.21% | 
82 | Cc1ccc(-c2noc(-c3nnn(CC(=O)Nc4cc(C)cc(C)c4)c3N)n2)cc1 | inactive: -1.83% | 
83 | COc1ccc(CCCc2nnc(SCC(=O)Nc3ccc(C)cc3C)o2)cc1 | inactive: 2.14% | 
84 | CCN(CC)S(=O)(=O)c1cc(-c2onc(C)c2C)ccc1OC | inactive: 2.49% | 
85 | O=C(NCc1cccc(Cl)c1)C1CCN(C(=O)c2sccc2-n2cccc2)CC1 | inactive: 0.425% | 
86 | CCc1ccc(C(=O)c2cn(CC(=O)Nc3ccc(OC)cc3OC)c3ccc(CC)cc3c2=O)cc1 | inactive: 2.44% | 
87 | COc1cccc(C(=O)Nc2cccc(C(=O)OCc3cc(=O)n4nc(C(C)C)sc4n3)c2)c1 | inactive: 16.3% | 
88 | CC(=O)N1CCC(N(C(=O)Nc2c(F)cccc2F)C(C)C)CC1 | inactive: 2.81% | 
89 | Cc1ccc(N(C)C(=O)c2cnc(N3CCOCC3)c3ccccc23)cc1C | inactive: -2.14% | 
90 | CCOc1ccc(-c2nc(SCC(=O)NCCOC)c(-c3ccc(OC)c(OC)c3)[nH]2)cc1 | inactive: -9.34% | 
91 | CSc1nc2sc3c(c2c(=O)n1-c1ccc(F)c(Cl)c1)CCN(C(C)=O)C3 | inactive: 5.77% | 
92 | Cc1cc(C)cc(NC(=O)CSc2nc(-c3cccc(Cl)c3)nc3c2Cc2c(CO)cnc(C)c2O3)c1 | inactive: -4.82% | 
93 | CCOC(=O)NC1(C(F)(F)F)NC(=O)N(c2ccc(C)c(C)c2)C1=O (stereo unspecified) | inactive: 3% | 
94 | COc1ccc(S(=O)(=O)NCCc2csc(-c3ccc(F)cc3)n2)cc1 | inactive: -15.6% | 
95 | Cc1cc(C)cc(OCC(=O)Nc2ccc(S(=O)(=O)Nc3onc(C)c3C)cc2)c1 | inactive: 1.19% | 
96 | COc1ccc(-n2nc(C(=O)Nc3cccc(C(F)(F)F)c3)c3c4ccccc4n(C)c3c2=O)cc1 | inactive: -0.109% | 
